Assay results: the supplement of paper PMC10126150
Sequences with one replicate were seen in a single cluster, so their values are uncertain.

Tested on: ATP
Test: switch fluorescence ratio, 500 uM ATP over buffer (Cy3 cluster intensity, sum of 5 cycles each) (fold (ratio)); higher = stronger signal-on switching upon ATP binding; sequences stand for … in TCGTCGGCAGCGTCAGATGTGTATAAGAGACAGTTTTTTTTTTTTTTTTTTTTTTTTT…TC
Details: aptamer strand: ATP DNA aptamer (quencher-CACCTGGGGGAGTATTGCGGAGGAAGG + anchor), 100 nM annealed; ATP concentration: 500 uM; one replicate
In short: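 Values give the fluorescence ratio for each switch-domain sequence, averaged from per-cluster ratios of summed target-cycle to summed buffer-cycle Cy3 intensity. The Cy3-labelled switching-strand clusters sat on a modified Illumina MiSeq flow-cell, were annealed to 100 nM quencher-labelled ATP aptamer, and were imaged in selection buffer, then after 15 min with 500 uM ATP at 22 °C. Five cycles ran with NaOH stripping and re-annealing between them, and clusters outside 100-1000 RFU were excluded.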
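Also: ATP exposure 15 min at 22 °C before imaging.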

| Sequence | switch fluorescence ratio |
| --- | --- |
| AGGTTTCAGC | 0.963 |
| GATGTACCCT | 1.1 |
| CACGGACGCC | 1.09 |
| GCTAAAAACG | 0.928 |
| GAATATGACA | 1.01 |
| ATGCACTACA | 1.06 |
| TACGAACGAA | 1.48 |
| GGTATTGCAG | 0.946 |
| GCATGCCAGG | 1.02 |
| CGTTGTGATG | 0.967 |
| TCCATTTCAG | 0.998 |
| TTTCCCATGT | 1.08 |
| CGAGATTGAA | 0.975 |
| GTTCTATACC | 1.02 |
| TAACAACATA | 1.06 |
| TTCCTTGAAG | 1.02 |
| GGGTGTAATA | 1.03 |
| CTTAGGTCAT | 0.996 |
| AATCGGTCGA | 1.07 |
| GGAGTTGAGC | 1.01 |
| TGATGTACAT | 0.984 |
| GCTTGATATA | 1.03 |
| TTACTCCGAC | 4.77 |

| Sequence | switch fluorescence ratio |
| --- | --- |
| GAGTTCTGGA | 0.988 |
| TTCCGACGAG | 1.4 |
| GATATTAACG | 1 |
| AGGGAAGCCA | 0.999 |
| TGATGTTATC | 0.945 |
| TGTCAAGCA | 0.998 |
| TTTGTGTAA | 0.972 |
| AGGGATAAC | 0.969 |
| CAAACCCGGC | 1.06 |
| GACCGTTGGC | 0.996 |
| CAAATGGACA | 0.983 |
| TAACGAGTAT | 1.02 |
| CCGTGCGCCT | 1.71 |
| CACTGGCCGC | 1.15 |
| GGTGTGGGA | 0.989 |
| CAGGCAACGG | 1.07 |
| ATGGTTCCGT | 0.948 |
| AAGGGCGACT | 0.99 |
| AACGAAACCC | 1.1 |
| GATGTATTTG | 1.01 |
| ACATATCCCT | 1.06 |
| GTGGATGGAG | 0.991 |
| GATATAACAA | 1.02 |

| Sequence | switch fluorescence ratio |
| --- | --- |
| ACCTCGGCAG | 2.08 |
| GTAAGGCTTT | 1.02 |
| TGTGATGCGG | 1.03 |
| CTCAAAGGGA | 1 |
| ATGCGATTTT | 1.13 |
| CTCTCGGGAC | 1.8 |
| GTTTGACGGG | 0.994 |
| ACTAACCCCG | 1.18 |
| TGAAATCGCT | 0.977 |
| GATCACACGC | 1.12 |
| GCACCTGTTT | 1.02 |
| ATGGCTGGCC | 1.04 |
| AGGTGTTT | 1.06 |
| GGTGCTTGAA | 0.974 |
| GAAACACAAA | 1 |
| AGTCGCGAGG | 0.995 |
| TAGGGTTTAC | 0.916 |
| GAAGGACGTG | 0.995 |
| TTCTGTCATG | 1.2 |
| CAGAGCGGTA | 1.05 |
| TCCCCAGCCT | 1.31 |
| TTTGTCGGTT | 0.994 |
| GATCACCGGT | 1.01 |

| Sequence | switch fluorescence ratio |
| --- | --- |
| CGCTACGGTC | 1.05 |
| ACAAGCGCTA | 1.04 |
| ATTCGGGTA | 0.984 |
| AGGCTCAAA | 0.983 |
| CCATGTGGCG | 0.987 |
| AAAGGCGGTT | 0.973 |
| TCGATTTATG | 0.97 |
| AAATTCTCAG | 1.04 |
| TTTAACTGGT | 0.992 |
| CATCCTGAGG | 0.965 |
| CAAGTAAGGA | 1.06 |
| AGCCGTAAGC | 1.05 |
| CGGACATGGG | 1 |
| ACAGTTATGA | 0.998 |
| TGTGTTCGTC | 1 |
| GCGGCCTGCA | 1.04 |
| TTAACCCGCT | 1 |
| GTTAATCGGC | 0.951 |
| CACCTCTAGC | 1.15 |
| TAATTATATG | 0.968 |
| CTTAGATAGC | 0.991 |
| ATTGTCGTAC | 1.07 |
| GCTCCGGGAG | 1.07 |

| Sequence | switch fluorescence ratio |
| --- | --- |
| GCTAGTTCCA | 1.06 |
| TCTGTTGGGT | 1 |
| CCTGAAGCGA | 4.59 |
| TCTAACGCAC | 2.1 |
| GGTTGAGTAG | 0.987 |
| CGGAGATTTC | 1.13 |
| GTGGTTACCT | 1.09 |
| CGACGGAGCT | 1.87 |
| GAGATCGGAT | 1.03 |
| TTAGCCGGCA | 0.991 |
| GTTTAGCCCT | 0.998 |
| GAGTTGGGCC | 1.02 |
| CAGTTTGCGA | 1.01 |
| GACGTTCAGC | 1.07 |
| TAACGGCCCA | 1.01 |
| TATTGGTTGG | 1.02 |
| CAGTGATAGT | 1.04 |
| TAAGAGAGT | 1.01 |
| GGCGTTCTCG | 1.03 |
| TTACATCGAG | 1.03 |
| AAACGGCAGC | 1.06 |
| TAGGGAGTCG | 0.982 |
| TGGTGCGAAC | 1.05 |

| Sequence | switch fluorescence ratio |
| --- | --- |
| TGATATCTCG | 1 |
| GCGGCGAGAT | 1.01 |
| TTCTTCTCTA | 1.16 |
| TGATGCATTT | 1.6 |
| TCGTAGATGA | 1.04 |
| CCACTTCGGT | 0.999 |
| TACGTGCG | 1.04 |
| AAGCTGACCG | 1.05 |
| ACTACTCAAC | 1.37 |
| TAGCTATTTG | 1.01 |
| GTCGAAAGAA | 1 |
| GTTGAGGGAA | 0.961 |
| TCTTATGAT | 1.02 |
| GACACATGCC | 1.04 |
| TTCGTTAGTT | 0.991 |
| TTAACGAACC | 1.38 |
| TTACATGGGA | 0.998 |
| TTCTACGTAC | 1.7 |
| AGCGCATACA | 1.5 |
| GAAGTGATGA | 1.07 |
| GGTGTTGCCG | 1.09 |
| GCTAAGGTGG | 1.01 |
| AAATTATTAA | 0.988 |

| Sequence | switch fluorescence ratio |
| --- | --- |
| TTGCTTGCTT | 0.977 |
| CATACTAAGG | 1.05 |
| TAAGAGCAGT | 1.04 |
| CTTCCAGGGG | 3.61 |
| GGTGGGATAA | 0.978 |
| AGGCCTCTTA | 1.01 |
| CAGACCACGC | 1.06 |
| GCAGTTTGCG | 0.931 |
| AATGAAAAGG | 0.964 |
| GAGGTTGTTC | 0.964 |
| CAGAGTTGTA | 0.999 |
| CCTTAACCTT | 1.71 |
| GAGTCTTGAG | 1 |
| CGTAGTGCGT | 0.962 |
| TATGCTGTGT | 1.05 |
| GGATAAACAC | 1.02 |
| ACGCGTGTGA | 1.02 |
| TTGAGCCGAT | 0.943 |
| GGGTAGCGGA | 0.969 |
